In PubChem BioAssay AID624173 (National Center for Advancing Translational Sciences (NCATS), 2012):
The campaign covered roughly 410,000 compounds. About 490 (0.12%) were called active. The inconclusive results got no clear call from the source; some entries with a clear call stand among them for comparison. Calls follow the shape of the dose curve; as a rule, active = well fitted inhibition curve with a large enough effect; inconclusive = small, poorly fitted or top-dose-only effect; inactive = flat fitted curve, though single readings scatter. Potencies beside an inconclusive call are fits to weak or partial responses and may not hold up.

Target: pyruvate kinase (Trypanosoma brucei) (UniProt Q57TT1)
Experiment: qHTS of Trypanosoma Brucei Inhibitors; also: nearly all actives have a fitted effect of over 50% in size
Settings: TbPYK enzyme, Kinase-Glo Plus ATP luminescence, 45 min; series mostly up to 76.8 µM; activity, negative = inhibition: at the top concentration
In short: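 Quantitative HTS: titrated library compounds versus trypanosomal pyruvate kinase in TEA buffer (pH 7.2) containing KCl, MgCl2, BSA and Tween-20. Reactions were initiated with ADP, 130 uM final. Kinase-Glo Plus luminescence was read after 45 min at RT.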
% is scaled to controls: 0 for no effect and ±100 for the full control effect; potency is read from the fitted curve at half-maximal effect; tags tell the direction and shape of the fitted curve.

Compound	Potency	activity, negative = inhibition
O=C1NC(=O)N(Cc2ccco2)C(=O)/C1=C\c1ccc(-c2ccc(F)cc2)o1	inconclusive: 28.2 µM [inhibitor, single point]	
NS(=O)(=O)c1ccc(NC(=S)NCCc2ccccc2)cc1	inconclusive: 25.1 µM [inhibitor, partial curve]	
COc1ccc(O)c(/C=C2/SC(=S)N(Cc3ccccc3)C2=O)c1	inconclusive: 35.5 µM [inhibitor, partial curve]	
C=CCC(NCc1ccccc1)c1ccc(C)o1 (centres undefined)	inconclusive: 31.6 µM [inhibitor, partial curve, poor fit]	
COc1cc(C=C2C(=O)NC(=O)NC2=O)ccc1O	inconclusive: 28.2 µM [inhibitor, single point]	
O=c1ccc(N=Nc2ccccc2)ccc1O	inconclusive: 31.6 µM [inhibitor, partial curve, poor fit]	
Cc1n[nH]c(=S)n1/N=C/c1cccc(OCc2ccccc2)c1	inconclusive: 5.01 µM [inhibitor, partial curve, poor fit]	
CCOC(=O)c1ccc(N=c2ssnc2Cl)cc1	active: 35.5 µM	
O=C(c1ccc[nH]c1=S)N1CCN(S(=O)(=O)c2ccc(Br)cc2Cl)CC1	inconclusive: 22.4 µM [inhibitor, partial curve, poor fit]	
CCOC(=O)c1ccc(NC(=O)C2C3C=CC(C3)C2C(=O)O)cc1 (centres undefined)		inactive: 3.26%
S=c1[nH]nc(C2CCCCC2)n1/N=C/c1ccccn1	inconclusive: 8.91 µM [inhibitor, full curve]	
S=c1[nH]nc(-c2ccc(Cl)cc2)n1Cc1ccccc1	inconclusive: 5.62 µM [inhibitor, partial curve, poor fit]	
O=C(Nc1ccn(CCCNCC(c2ccccc2)c2ccccc2)c(=O)n1)OCc1ccccc1		inactive: 1.43%
Oc1ccc(/C=N/Nc2nccnc2Cl)cc1	inconclusive: 25.1 µM [inhibitor, partial curve]	
COc1ccc(-c2ccc(CN3C(C)C(=O)N(Cc4cn(CCC5OCCO5)nn4)CCS3(=O)=O)cc2)cn1 (centres undefined)		inactive: 2.19%
Cc1sc2ncnc(N3CCC(C(=O)Nc4cc(Cl)ccc4Cl)CC3)c2c1C		inactive: -1.49%
COC(=O)[C@@H](Cc1ccccc1)N(Cc1ccccc1)S(=O)(=O)N(Cc1ccccc1)[C@H](Cc1ccccc1)C(=O)OC		inactive: 1.08%
CN(C)c1cccc(C(=O)N2CCCC(C(=O)c3cc(F)ccc3F)C2)c1 (centres undefined)		inactive: 0.0863%
CCn1c(CC(=O)Nc2ccccc2)n[nH]c1=S	inconclusive: 15.8 µM [inhibitor, partial curve, poor fit]	
CN1CSC2=C(C#N)C(c3cccc(OCc4ccccc4)c3)CC(=O)N2C1 (centres undefined)	inconclusive: 11.2 µM [inhibitor, partial curve, poor fit]	
COc1ccc(S(=O)(=O)NCC2CCC(C(=O)NCc3ccco3)CC2)cc1 (centres undefined)	inconclusive: 31.6 µM [inhibitor, single point]	
N#CC1=C2SCN(c3ccc(F)cc3)CN2C(=O)CC1c1cccc(F)c1 (centres undefined)	inconclusive: 5.01 µM [inhibitor, partial curve, poor fit]	
Cc1cccc(NC(=O)c2c(NC(=O)c3ccccc3)sc3c2CCCC3)c1	inconclusive: 31.6 µM [inhibitor, partial curve, poor fit]	

Compound	Potency	activity, negative = inhibition
Cc1cccc(C)c1NC(=S)NC(C)(C)CO	inconclusive: 10 µM [inhibitor, partial curve, poor fit]	
Nc1nonc1-n1nnc(C(=O)N/N=C/c2cc(Br)ccc2O)c1CSC1=NCCS1	inconclusive: 0.891 µM [inhibitor, full curve]	
COCCNC(=O)/C(C#N)=C/c1ccc(C)o1		inactive: -5.53%
O=C(CCc1nnc2n(Cc3ccccc3Cl)c(=O)c3ccccc3n12)Nc1ccccc1		inactive: -1.18%
O=C1c2cccc(Sc3ccccc3)c2C(=O)c2c(Sc3ccccc3)cccc21	inconclusive: 35.5 µM [inhibitor, single point]	
CN1CCCC(CC2c3ccccc3Sc3ccccc32)C1 (centres undefined)		inactive: 4.18%
S=C(Nc1ccccc1Cl)Nc1ccc(Cl)cc1Cl		inactive: -3.97%
CN(C)c1ccc(C(=O)c2ccc(N(C)C)cc2)cc1		inactive: -0.223%
CCCOc1ccc(-c2c(=O)n(O)c3ccccc3[n+]2[O-])cc1	inconclusive: 31.6 µM [inhibitor, partial curve, poor fit]	
COc1ccccc1NS(=O)(=O)c1cccc(NC(=O)NCCCl)c1	inconclusive: 31.6 µM [inhibitor, partial curve, poor fit]	
COc1cccc(-c2noc(Cn3nc(C)c([N+](=O)[O-])c3C)n2)c1	inconclusive: 14.1 µM [inhibitor, partial curve]	
CCCCCCCCSc1nnc2[nH]c(=O)cc(N)n12	inconclusive: 39.8 µM [inhibitor, single point]	
O=C(Nc1ccc2cn[nH]c2c1)c1c(Cl)cccc1Cl	inconclusive: 25.1 µM [inhibitor, partial curve]	
COc1ccccc1N=Nc1[nH]c2ccc(C)cc2c1O	inconclusive: 28.2 µM [inhibitor, partial curve, poor fit]	
COc1ccccc1/C=C/C=N/n1c(C2CCCCC2)n[nH]c1=S	inconclusive: 15.8 µM [inhibitor, partial curve, poor fit]	
Cc1nc(SCC(=O)NCCc2ccccc2)n[nH]1	inconclusive: 28.2 µM [inhibitor, partial curve]	
Cc1ccc(C2CC2c2n[nH]c(=S)n2-c2ccc(Cl)cc2)cc1 (centres undefined)	inconclusive: 17.8 µM [inhibitor, partial curve, poor fit]	
O=C1CSC(=Nc2ccc(O)cc2)N1		inactive: -16.1%
Cc1ccc(S(=O)(=O)N2CCC(c3nnc(-c4cccc(C)c4)o3)CC2)cc1	inconclusive: 3.16 µM [inhibitor, full curve, poor fit]	
Cc1cccc(C)c1OCc1cc(C(=O)N2CC3C[C@@H]4CC2C[C@H](C3)C4)no1		inactive: 1.78%
O=C1C=CC(=O)C(C2=C3C(=O)N(CCc4ccccc4)CC(=O)N3CCC2)=C1	active: 2.51 µM	
COC(=O)c1c(NC(=O)c2ccccc2)sc(C(=O)c2ccccc2)c1C		inactive: 3.9%
COc1ccc(C(=O)CSc2nnc(-c3ccco3)c(-c3ccco3)n2)cc1	inconclusive: 17.8 µM [inhibitor, partial curve]	

Compound	Potency	activity, negative = inhibition
COc1ccccc1-n1c(-c2ccccc2)c[nH]c1=S	inconclusive: 5.62 µM [inhibitor, partial curve, poor fit]	
O=S(=O)(c1ccccc1)N1CCC(O)(CSc2ccccc2)CC1		inactive: 5.16%
Cc1ccc(C)c(NC(=O)Cn2cc(S(=O)(=O)c3ccc(F)cc3)c(=O)c3cc(F)ccc32)c1		inactive: -0.544%
CC(C)(C)C(=O)OCOP(=O)(COCCn1cnc2c(N)ncnc21)OCOC(=O)C(C)(C)C	inconclusive: 35.5 µM [inhibitor, partial curve, poor fit]	
O=C(Cn1cc(S(=O)(=O)Cc2cccc(F)c2)c2ccccc21)N1CCOCC1	inconclusive: 28.2 µM [inhibitor, partial curve]	
CCOc1ccc(CNC(=O)c2ccc(Sc3ccc(C)cc3)c(N)c2)cc1OC		inactive: 4.07%
CC1(C)CC(=O)C(C=NCCN2CCN(C3CC(=O)N(c4ccc(Br)cc4)C3=O)CC2)=C(O)C1 (centres undefined)		inactive: 1.93%
O=C1N=c2ccccc2=C1c1c(O)n(-c2cccc(F)c2)[nH]c1=O	inconclusive: 12.6 µM [inhibitor, partial curve]	
COc1coc(C(O)C[N+](=O)[O-])cc1=O (centres undefined)	inconclusive: 44.7 µM [inhibitor, single point]	
COc1cc(-c2noc(CSc3nc(-c4ccccc4)cc(=O)[nH]3)n2)cc(OC)c1OC		inactive: -1.93% [at 15.4 µM]
CC(=O)c1c(C)[nH]c(=S)c(C#N)c1-c1ccc(Cl)cc1	inconclusive: 2 µM [inhibitor, full curve, poor fit]	
Cc1ccc(S(=O)(=O)N2CCC(C(=O)N(C)C3CCS(=O)(=O)C3)CC2)cc1 (centres undefined)	inconclusive: 39.8 µM [inhibitor, single point]	
CCN(CC)C(=O)c1sc2nc(N3CCOCC3)c3c(c2c1N)CCCC3	inconclusive: 35.5 µM [inhibitor, partial curve, poor fit]	
O=c1c(-c2ccc(Br)cc2)[n+]([O-])c2ccccc2n1OCc1ccccn1	inconclusive: 50.1 µM [inhibitor, single point]	
Cc1[nH]c2ccccc2c1SCc1n[nH]c(=S)n1C	inconclusive: 7.08 µM [inhibitor, partial curve]	
COc1cc(OC)cc(C(=O)NCc2n[nH]c(=S)n2-c2ccccc2OC)c1	active: 11.2 µM	
O=C(NCc1n[nH]c(=S)n1-c1ccc(Cl)c(Cl)c1)c1ccco1	inconclusive: 15.8 µM [inhibitor, partial curve]	
CN(C(=O)c1ccc2c(=O)n3c(nc2c1)CCCCC3)c1cccc(Cl)c1		inactive: 7.44%
Brc1ccc(N=Nc2ccc3ccccc3n2)cc1	inconclusive: 17.8 µM [inhibitor, partial curve]	
O=C(NCc1ccccc1Cl)C(=O)NCC1OCCN1S(=O)(=O)c1cccs1 (centres undefined)	inconclusive: 31.6 µM [inhibitor, single point]	
S=c1[nH]nc(-c2ccco2)n1/N=C/c1ccc(Br)s1	inconclusive: 5.01 µM [inhibitor, partial curve]	
O=C(NCc1ccco1)c1noc2c1CCCC2		inactive: -0.284%
COc1nc(N)nc(NC(=O)c2cccs2)c1N=O		inactive: -0.159%
